Results published in ChEMBL document CHEMBL4888484, “Replenishing the malaria drug discovery pipeline: Screening and hit evaluation of the MMV Hit Generation Library 1 (HGL1) against asexual blood stage Plasmodium falciparum ,using a nano luciferase reporter read-out” (2022).
About 540 (0.36%) of roughly 150,000 compounds showed an effect of 50% or more. The list shows a part of the results.

Tested on: Plasmodium falciparum
Assay: Primary screen in NF54 nanoGlo assay, in single point, at 2uM, 72h; a lower Z score goes with more inhibition
Format: functional, Erythrocyte
Details: timepoint 72 hour

SMILES | % Inhibition [%] | Z score
CCn1cnc(CN[C@@H](C)C(C)OC)c1 (some centres not stated) | -7 | 1.05
Cn1ncc(C2CCC2)c1CNC(=O)CCc1ccncc1 | -3 | 0.52
CC(=O)N1CCCc2cc(NCc3nc(C)cs3)ccc21 | -3 | 0.3
COC(=O)N[C@@H](C)C(=O)N1CCC2(CCC(=O)N(Cc3ccncc3)C2)CC1 | -14 | 1.44
Cc1cc(N2C3CCC2CC(O)C3)c(C#N)c(C)n1 (configuration not stated) | -7 | 1.06
O=C(O)c1cc2ncc(-c3cc(NCc4cccnc4)nc4[nH]ccc34)cn2n1 | -3 | 0.53
O=S(=O)(NC(C1CC1)C1CC1)c1ccc(Cl)cc1 | 3 | -0.62
CC(C)CN(CC(F)(F)F)C(=O)COc1ccc(CC#N)cc1 | -18 | 3.31
CCc1ccc(S(=O)(=O)Nc2ncn(Cc3ccccc3Cl)n2)cc1 | -12 | 1.61
COCc1nc(CNC(=O)c2ncccc2O)no1 | -8 | 1.34
O=C1NC(=O)[C@@]2(CCCN(C(=O)c3ccsc3)C2)N1 | -13 | 1.51
CN1CCC(CN(C)C(=O)N[C@H]2CCCN(c3ccccc3Cl)C2)CC1 | -3 | 0.36
O=C(NCc1ccccc1Cl)c1ncn(C[C@H](O)c2ccccc2)n1 | -18 | 2.06
CC(C)c1noc([C@H](C)n2ccnc2C(C)(C)C)n1 | 4 | -0.38
C[C@@H](C(=O)Nc1cccc(S(=O)(=O)N2CCOCC2)c1)N1CCN(CC=Cc2ccccc2)CC1 | -6 | 0.95
CC(=O)NC1CCC(N[C@@H](C)COc2ccc(F)cc2)CC1 (some centres not stated) | -2 | 0.25
CCC(F)(F)C(C)(C)CNc1ccc(Cl)c(NC(C)=O)c1 | 3 | -0.39
CN1CCC(NC(=O)c2cccc3ccccc23)CC1 | -16 | 1.51
CNC(=O)c1cc(S(=O)(=O)N(C)Cc2nc3ccc(F)cc3[nH]2)cs1 | -7 | 1.16

SMILES | % Inhibition [%] | Z score
CCC(=O)N1CCc2cc(CNS(=O)(=O)N(C)C)ccc21 | -4 | 0.48
Cc1nnsc1C(C)N1CCN(C(C)c2snnc2C)CC1 (configuration not stated) | 2 | -0.33
Cc1cc(C)c(S(=O)(=O)NC[C@@H](c2ccco2)N2CCc3ccccc3C2)c(C)c1 | -17 | 2.21
COCCOCCc1nc(C(=O)Nc2cc(C)ccc2F)c[nH]1 | -4 | 0.71
CN(C)c1cc(NC(=O)C[C@@H]2C=CCCC2)ncn1 | 5 | -0.94
Cc1ccsc1CNc1cnc2c(c1)COCC2 | 3 | -0.42
CCC[C@@](C)(CCCNC(=O)C(C)(C)C#N)C1OCCO1 | -3 | 0.32
Cc1nc(CN2[C@H]3C[C@H]4CCC3(CS2(=O)=O)C4(C)C)oc1C | -2 | 0.25
COCCc1noc([C@@H]2CCCN2CCn2cncn2)n1 | -5 | 1.01
CC(C)c1ncc(C(=O)NCCCn2ccnc2)cn1 | -3 | 0.5
CNC1CCN(C(=O)c2ccc3c(c2)n(CC2CC2)c(=O)n3C2CCCCC2)CC1 | -4 | 0.64
Cn1nccc1CN1C[C@H]2C[C@H](c3ccccc3)CC[C@@]2(C(=O)O)C1 | 3 | -0.61
COc1ccc(CNC(=O)CNC(C)C2CC3CCC2C3)cc1OC (configuration not stated) | 13 | -2.09
O=C1O[C@]2(CCCN(C(=O)c3ccc(F)cc3Cl)C2)c2ccccc21 | -11 | 1.45
CCOC(=O)N1CCN(C(=O)c2cccc(-c3nc(C)cnc3C)c2)CC1 | -22 | 2.23
CCCCCS(=O)(=O)N1CCCCC1 | -4 | 0.72
CC(C)(C)CN(CCCO)S(=O)(=O)c1ccc(C#N)cc1F | -1 | 0.14
CNC(=O)c1cccnc1N1C[C@H](NC(=O)C2CCCC2)[C@@H](C(C)C)C1 | 11 | -1.39
Cc1ccccc1CNC(=O)Cc1nnc2c(-c3nc(C(C)(C)C)no3)cccn12 | -5 | 0.82

SMILES | % Inhibition [%] | Z score
CC(=O)Nc1ccc(CCc2nc3cc(C(=O)N4CCN(c5cccc(C)c5)[C@@H](C)C4)ccc3[nH]2)cc1 | 7 | -0.86
O=C(CC1=CCCCC1)NC[C@H](O)c1ccccc1F | -1 | 0.1
O=C(CNc1ncc(C(F)(F)F)s1)NCC1CC1 | -1 | 0.16
c1ccc2c(c1)CCC[C@@H]2Nc1ncnc2nc[nH]c12 | -8 | 1.11
O=C(c1c[nH]c(=O)c(Cl)c1)N1CCC2(CC1)c1ccccc1C[C@@H]2O | 0 | 0.01
COc1cccc(CNC(=O)CN2CCC[C@H](c3nnc4ccccn34)C2)c1 | -4 | 0.46
CN(C)c1noc(CN2CCc3ccc(F)cc3C2)n1 | 51 | -2.97
CCC1(C)CC(=O)N(CC(=O)Nc2ccc(F)cc2)C(=O)C1 | 1 | -0.12
Cc1nnsc1C(=O)Nc1ccccc1Cc1ccccc1 | -7 | 0.86
COC[C@@]1(CO)CCN(C(=O)OC(C)(C)C)C1 | -7 | 0.93
Cc1cc(C)nc(CN[C@@H](C)CN2CCCCCC2)n1 | -14 | 2.33
O=C(NCc1cocn1)c1c[nH]c(C(F)(F)F)c1 | -12 | 2.13
COCCN(Cc1ccc(C)o1)C[C@H](O)C(C)C | -10 | 1.19
COc1cccc(NC(=O)N2CCC(C)CC2)n1 | 0 | 0
Cc1nn(C)c2nc(C=Cc3cnc(N(C)C)n3C)cc(C(=O)O)c12 | -42 | 4.93
CS(=O)(=O)c1ccc(-c2ccc(-n3cccn3)cc2)cc1 | 0 | -0.04
Cc1cc(C)cc(CN2CCN(C(=O)c3c(C)n[nH]c3C3CC3)CC2=O)c1 | -7 | 0.87
CC1CCC(N(C)C(=O)[C@H]2CC2(Cl)Cl)CC1 (some centres not stated) | -4 | 0.55
